# Data: PMC4336329 (PLoS ONE, 2015)
# Screen size: about 310,000 compounds; about 2,200 (0.71%) showed an effect of 50% or more. The effect is printed as a negative number. This is one part of the list. Where a SMILES comes first, the peptide text is derived from it. [ ]: non-standard residue; d: D form. ξ: configuration not given here. ξF = NC(Cc1ccccc1)C(=O)O
# Target: human ether-à-go-go-related gene (hERG) potassium channel (human, UniProt Q12809)
# Test: primary screen, population patch clamp on CHO cells stably expressing hERG
# Chain of human ether-à-go-go-related gene (hERG) potassium channel (Q12809 whole entry, looked up): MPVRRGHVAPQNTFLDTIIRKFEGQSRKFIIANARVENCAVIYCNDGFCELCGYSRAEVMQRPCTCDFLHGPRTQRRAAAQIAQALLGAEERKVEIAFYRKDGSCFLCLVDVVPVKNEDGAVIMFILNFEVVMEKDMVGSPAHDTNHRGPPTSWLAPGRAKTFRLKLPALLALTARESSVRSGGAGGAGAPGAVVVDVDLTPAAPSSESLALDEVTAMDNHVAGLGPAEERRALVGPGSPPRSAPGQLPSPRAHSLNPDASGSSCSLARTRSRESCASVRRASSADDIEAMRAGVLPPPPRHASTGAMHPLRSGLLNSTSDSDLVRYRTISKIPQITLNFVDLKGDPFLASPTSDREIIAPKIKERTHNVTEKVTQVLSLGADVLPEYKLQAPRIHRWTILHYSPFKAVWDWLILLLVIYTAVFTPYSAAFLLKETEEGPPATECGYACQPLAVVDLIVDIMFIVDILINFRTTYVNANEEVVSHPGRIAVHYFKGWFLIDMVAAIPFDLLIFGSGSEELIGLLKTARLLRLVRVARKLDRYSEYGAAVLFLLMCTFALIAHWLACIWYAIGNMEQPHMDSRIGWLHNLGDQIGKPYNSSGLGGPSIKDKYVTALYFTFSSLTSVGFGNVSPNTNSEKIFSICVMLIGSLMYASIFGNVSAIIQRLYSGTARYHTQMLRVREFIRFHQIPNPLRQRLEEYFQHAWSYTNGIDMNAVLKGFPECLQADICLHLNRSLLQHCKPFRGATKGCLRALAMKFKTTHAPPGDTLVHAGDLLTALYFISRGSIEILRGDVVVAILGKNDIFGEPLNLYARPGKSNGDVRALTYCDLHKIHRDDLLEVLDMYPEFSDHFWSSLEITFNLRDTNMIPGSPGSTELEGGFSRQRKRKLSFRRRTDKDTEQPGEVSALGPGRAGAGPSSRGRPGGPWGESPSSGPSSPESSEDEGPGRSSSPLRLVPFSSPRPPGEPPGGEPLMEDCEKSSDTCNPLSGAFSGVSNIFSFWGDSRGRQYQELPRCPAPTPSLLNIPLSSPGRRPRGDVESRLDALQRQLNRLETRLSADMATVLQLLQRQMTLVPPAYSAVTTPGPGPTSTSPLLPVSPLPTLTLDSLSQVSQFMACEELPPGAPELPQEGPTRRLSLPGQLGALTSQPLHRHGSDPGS
row,SMILES,"hERG current change (%, negative = inhibition) at 1uM"
1,CC(=O)c1sc(C(C)(C)C)cc1NC(=O)CCC(=O)O,10.6%
2,COc1ccccc1CNC(=O)COC(=O)c1cc([N+](=O)[O-])ccc1N1CCOCC1,-13.7%
3,Cc1c(-n2cc(C(=O)O)c(=O)c3cc(F)c(N4CCCC(O)C4)c(F)c32)c(=O)n(-c2ccccc2)n1C (stereo not shown),6.46%
4,CC(=O)NCC(=O)NC(Cc1ccccc1)C(N)=O (stereo not shown) (Ac-Gly-[ξF]-NH2),10.1%
5,CC(C)c1cc(C(=O)O)c2cnn(C(C)C)c2n1,-4.12%
6,Cc1csc(/C(=N\O)c2csc(C)n2)n1,7.71%
7,CCN(CC)CCCN1C=C2C(=O)C(C)(OC(=O)CCC(=O)OC)C(=O)C=C2C=C1C1CC1 (stereo not shown),-6.2%
8,Cc1ccc(Cn2nc(C)c(NC(=O)C3CC3)c2C)cc1,6.57%
9,CC(=C/c1ccccc1)/C=N/NC(=O)c1ccccn1,0.84%
10,CCOc1ncccc1C(=O)N1CCN(S(=O)(=O)c2ccc3c(c2)OCCO3)CC1,8.5%
11,O=c1oc(-c2cc3ccccc3o2)nc2sc3c(c12)CCCC3,10.7%
12,COc1ccc(Nc2nc(N)c([N+](=O)[O-])c(NC3CCCCC3)n2)cc1,8.56%
13,O=C(O)c1cc(=O)cc(C(=O)O)[nH]1,7.81%
14,CNC(=S)N1N=C(c2cccs2)CC1c1ccc(F)cc1 (stereo not shown),0.109%
15,Nc1c(NCc2ccccc2)c(=O)[nH]c(=O)n1Cc1ccccc1,-16.7%
16,Cc1ccc2[nH]c3c(c2c1)CN(C)CC3.Cl,8.17%
17,CCN(CC)S(=O)(=O)c1cccc(NC(=O)COc2ccc(Cl)cc2Br)c1,10.8%
18,CC(C)N(Cc1ccccc1)S(=O)(=O)c1ccc(F)cc1,12.7%
19,COc1ccc(C)c2sc(=NC(=O)C(C)C)n(C)c12,2.38%
20,O=C(Nc1ccccc1Br)C1CCN(C(=O)Cc2ccccc2)CC1,3.94%
21,CCN1CCN(CCC(=O)Nc2cc(OC)ccc2OC)CC1.Cl,13.1%
22,COc1ccc(Cc2nnc(SCC(=O)Nc3ccccc3C)n(N)c2=O)cc1,14.1%
23,CCOc1cc(/C=C2/SC(=O)N(CC(=O)N3CCc4ccccc4C3)C2=O)ccc1OCC(=O)O,5.33%
24,COc1ccc(S(=O)(=O)N2CCOC23CCN(S(=O)(=O)c2cc(F)ccc2F)CC3)cc1,10.4%
25,Cc1nc2ncccn2c1-c1csc(NCc2ccco2)n1,-10.8%
